Results as given in PubChem BioAssay (Tox21).
Several values for one entry are separate records, joined by “and”; a condition that tells them apart may be missing. Identical values can stand only once. The inconclusive results got no clear call from the source; some entries with a clear call stand among them for comparison. Potencies beside an inconclusive call are fits to weak or partial responses and may not hold up. Activity calls are given as the source filed them. Unless noted, calls follow the shape of the dose curve; as a rule, active = well fitted cell-killing curve with a large enough effect in the repeat runs; inconclusive = weak or mixed curves, or effect the other way; inactive = flat fitted curve, though single readings scatter.
% is scaled to controls: 0 for no effect and ±100 for the full control effect; potency is read from the fitted curve at half-maximal effect; tags tell the direction and shape of the fitted curve or compound fluorescence and quenching.

Biological target: Androgen receptor (Homo sapiens) (UniProt P10275)
UniProt P10275, sequence (P10275 whole entry, looked up): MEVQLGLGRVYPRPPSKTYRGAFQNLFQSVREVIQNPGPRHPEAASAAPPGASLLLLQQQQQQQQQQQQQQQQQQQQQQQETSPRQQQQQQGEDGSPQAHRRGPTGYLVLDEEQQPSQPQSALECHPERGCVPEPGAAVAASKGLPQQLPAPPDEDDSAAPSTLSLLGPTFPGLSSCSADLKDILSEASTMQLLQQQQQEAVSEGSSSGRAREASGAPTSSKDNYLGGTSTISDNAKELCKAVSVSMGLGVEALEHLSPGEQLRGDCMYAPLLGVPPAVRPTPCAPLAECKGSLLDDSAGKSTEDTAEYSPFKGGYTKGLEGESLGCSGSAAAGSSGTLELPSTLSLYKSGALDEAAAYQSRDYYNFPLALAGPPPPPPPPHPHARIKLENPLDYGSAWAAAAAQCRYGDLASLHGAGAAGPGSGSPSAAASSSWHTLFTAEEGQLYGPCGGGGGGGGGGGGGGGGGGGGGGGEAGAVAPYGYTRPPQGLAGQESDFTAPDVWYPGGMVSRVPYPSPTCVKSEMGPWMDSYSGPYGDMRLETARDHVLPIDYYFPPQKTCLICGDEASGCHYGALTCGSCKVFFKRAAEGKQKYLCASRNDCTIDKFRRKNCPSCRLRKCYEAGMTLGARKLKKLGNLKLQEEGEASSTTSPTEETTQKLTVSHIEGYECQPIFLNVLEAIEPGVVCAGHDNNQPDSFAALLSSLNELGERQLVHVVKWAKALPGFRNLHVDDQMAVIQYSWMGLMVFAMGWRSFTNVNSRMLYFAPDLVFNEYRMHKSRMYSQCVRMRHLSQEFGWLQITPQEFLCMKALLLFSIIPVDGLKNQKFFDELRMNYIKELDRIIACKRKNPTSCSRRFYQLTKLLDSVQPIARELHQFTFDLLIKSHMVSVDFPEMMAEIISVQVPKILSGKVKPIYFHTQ
Assay: qHTS assay to identify small molecule agonists of the androgen receptor (AR) signaling pathway (AID 743036; active = well fitted activation curve with a large enough effect in the signal ratio in the repeat runs, with a control signal flat, not every such curve was filed as active; inconclusive = weak or mixed curves, or effect the other way; inactive = no such curve, though single readings can be large or run the other way; the % refers to the signal ratio)
Conditions: HEK293 AR-UAS-bla GripTite, beta-lactamase FRET ratio, 16 h; series mostly up to 62.4 µM
Outline: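 AR-UAS-bla HEK293 cells, plated 4 h before dosing, were treated with compound for 16 h at 37C. beta-Lactamase reporter read after 2 h with LiveBLAzer B/G FRET substrate at room temperature.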
In the case of CCCCC(CC)COC(=O)/C=C/c1ccc(OC)cc1 (stereo not drawn), the Potency is reported as “inactive”. In the case of O=C1NC(=O)c2cc([N+](=O)[O-])ccc21, the Potency is reported as inconclusive: 5.54 µM [activator, single point]. For Nc1nc(N)c2nc(-c3ccccc3)c(N)nc2n1, the Potency was active: 21.3 µM and active: 49.5 µM and active: 49 µM.

Test system: not listed separately
Assay: qHTS assay to identify small molecule antagonists of the androgen receptor (AR) signaling pathway using the MDA cell line - cell viability counter screen (AID 743041; also: nearly all actives have a fitted effect of over 45% in size)
Conditions: MDA-kb2 viability, CellTiter-Fluor, 16 h, cells co-treated with R1881 androgen agonist; series mostly up to 70.3 µM
Outline: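 Using the breast carcinoma line MDA-kb2 AR-luc, test chemicals were co-incubated with R1881 for 16 h; CellTiter-Fluor reagent, added at 15.5 h, provided a fluorescence measure of live cells.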
For O=C(Oc1cccc2cccnc12)c1ccccc1, the Potency was active: 6.99 µM. With Cc1ccc(N)c(S(=O)(=O)O)c1 the Potency was “inactive”. In the case of CC[C@H]1O[C@]2(CC[C@@H]1C)C[C@@H]1C[C@@H](C/C=C(\C)C[C@@H](C)/C=C/C=C3\CO[C@@H]4[C@H](O)C(C)=C[C@@H](C(=O)O1)[C@]34O)O2, the Potency is reported as inconclusive: 27.1 µM [cytotoxic, full curve]. In the case of CCCCCCCCCCCCCCCC[N+](C)(C)Cc1ccccc1, the Potency is reported as inconclusive: 33.5 µM [cytotoxic, single point] and active: 35.5 µM and active: 27.8 µM. In the case of CC(C)(C)c1cc(/C=C2\SC(=N)NC2=O)cc(C(C)(C)C)c1O, the Potency is reported as inconclusive: 68.6 µM [cytotoxic, single point]. For CCOc1ccc([N+](=O)[O-])cc1, the Potency was inconclusive: 69.6 µM [cytotoxic, single point]. With On1ccccc1=S the Potency was active: 0.959 µM. For COc1cccc(-c2ccc(/C=C\CN3CCCCCC3)cc2Cl)c1, the Potency was inconclusive: 60.9 µM [cytotoxic, single point]. For Cc1cc2nc3c(=O)[nH]c(=O)nc-3n(C[C@H](O)[C@H](O)[C@H](O)CO)c2cc1C, the Potency was inconclusive: 56.7 µM [rising, partial curve] [middle of 4 runs]. For Oc1c(Cl)cc(Cl)c2cccnc12, the Potency was active: 11.1 µM. With CCCCCCCCCCCCCOP(=O)(O)O the Potency was inconclusive: 61.1 µM [cytotoxic, single point]. With COc1ccc(CCN2CCC(Nc3nc4ccccc4n3Cc3ccc(F)cc3)CC2)cc1 the Potency was inconclusive: 31.2 µM [cytotoxic, single point] and active: 39.4 µM. With O=C(Nc1ccccc1SSc1ccccc1NC(=O)c1ccccc1)c1ccccc1 the Potency was inconclusive: 77.4 µM [cytotoxic, partial curve, poor fit] and inconclusive: 68.6 µM [cytotoxic, single point]. For O=C1c2c(O)ccc([N+](=O)[O-])c2C(=O)c2c([N+](=O)[O-])ccc(O)c21, the Potency was active: 21.5 µM. For OC1C(O)C(O)C(O)C(O)C1O (stereo not drawn), the Potency was inconclusive: 27.3 µM [rising, partial curve, poor fit]. For C/C=C/C(=O)Oc1c(CCCCCC(C)C)cc([N+](=O)[O-])cc1[N+](=O)[O-], the Potency was active: 7.7 µM. In the case of O=C1NCN(c2ccccc2)C12CCN(CCCC(c1ccc(F)cc1)c1ccc(F)cc1)CC2, the Potency is reported as active: 29.8 µM. For O=c1[nH]sc2ccccc12, the Potency was inconclusive: 68.6 µM [cytotoxic, single point]. For CCCCc1oc2ccc(NS(C)(=O)=O)cc2c1C(=O)c1ccc(OCCCN(CCCC)CCCC)cc1, the Potency was inconclusive: 33.5 µM [cytotoxic, single point]. In the case of Nc1nc(N)c2nc(-c3ccccc3)c(N)nc2n1, the Potency is reported as inconclusive: 24.8 µM [rising, partial curve] and inconclusive: 17.2 µM [rising, partial curve].
